From PubChem BioAssay AID1671188 (National Center for Advancing Translational Sciences (NCATS), 2021)
The whole screen tested about 100,000 compounds, of which about 250 (0.25%) were called active. Inconclusive means that the source gave no clear call. Such entries were picked first, then a sample of the others. Calls follow the shape of the dose curve; as a rule, active = well fitted inhibition curve with a large enough effect; inconclusive = small, poorly fitted or top-dose-only effect; inactive = flat fitted curve, though single readings scatter. No potency is given beside an inconclusive call; the fits are too rough.

Molecular target: Alanine aminotransferase 2 (Homo sapiens) (UniProt Q8TD30)
Assay: Primary qHTS assay for inhibitors of Glutamate pyruvate transaminase 2 (GPT2); also: nearly all actives have a fitted effect of over 60% in size
Conditions: Recombinant GPT2, coupled pyruvate oxidase/HRP Amplex Red fluorescence; activity change, negative = inhibition: at 57.7 µM (top of the series) unless noted; series mostly up to 57.7 µM
How it was run: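 Inhibition is scored from Amplex Red fluorescence generated when pyruvate oxidase and HRP act on pyruvate released by GPT2. Reactions contain 10ng/uL enzyme, 250uM a-KG and 2mM L-alanine and run 30 min at room temperature.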
% is scaled to controls: 0 for no effect and ±100 for the full control effect; potency is read from the fitted curve at half-maximal effect; tags tell the direction and shape of the fitted curve.

Chain of UniProt Q8TD30 (Q8TD30 whole entry, looked up): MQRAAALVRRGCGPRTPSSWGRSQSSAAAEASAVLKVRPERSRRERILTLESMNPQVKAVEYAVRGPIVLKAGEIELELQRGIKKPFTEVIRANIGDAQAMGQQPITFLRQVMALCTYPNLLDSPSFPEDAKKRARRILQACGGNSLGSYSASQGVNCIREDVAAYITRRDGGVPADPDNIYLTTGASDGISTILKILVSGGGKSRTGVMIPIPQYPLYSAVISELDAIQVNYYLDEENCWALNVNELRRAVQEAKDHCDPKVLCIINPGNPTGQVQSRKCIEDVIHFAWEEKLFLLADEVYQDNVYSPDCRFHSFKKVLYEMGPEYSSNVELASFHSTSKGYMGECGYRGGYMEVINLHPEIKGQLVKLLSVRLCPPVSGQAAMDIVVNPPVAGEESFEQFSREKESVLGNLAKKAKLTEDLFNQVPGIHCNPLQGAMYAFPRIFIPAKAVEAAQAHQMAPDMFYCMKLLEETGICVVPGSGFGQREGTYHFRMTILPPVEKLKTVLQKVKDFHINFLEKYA

Row | SMILES | Potency | activity change, negative = inhibition | outcome
1 | O=C(c1ccccn1)N1CC(Oc2ccc(-c3noc(C4CC4)n3)cc2)C1 | inconclusive [inhibitor, partial curve, poor fit] | – | –
2 | O=C(c1ccc(Br)o1)N1CCCN(c2cc(-c3ccc(Cl)cc3)[nH]n2)CC1 | – | inactive: -22.1% | –
3 | COC(=O)[C@@H]1Cc2ncn(Cc3ccc(OC)cc3)c2CN1CCCc1ccccc1 | – | inactive: -22.6% [at 88.5 µM] | –
4 | COc1ccc(-n2nc(C3CCN(Cc4cccnc4)CC3)[nH]c2=O)cc1 | inconclusive [inhibitor, full curve, poor fit] | – | –
5 | Cc1noc(-c2ccn3c(CNC(=O)c4cccc(Cl)c4)nnc3c2)n1 | inconclusive [inhibitor, partial curve, poor fit] | – | –
6 | Oc1cc(-c2csc3ccccc23)cc2c1OCCNC2 | – | – | inactive
7 | CN1CCC2(C1)CN(CC1CC1)c1ccc(C(=O)NC3CCC3)cc12 (stereo not drawn) | inconclusive [inhibitor, single point] | – | –
8 | CCC(O)c1cc2n(n1)CCN(Cc1nccn1Cc1ccccc1)C2 (stereo not drawn) | – | – | inactive
9 | CC(C)CC(=O)Nc1ccc([C@H]2OCC(=O)N(Cc3nccn3C)[C@@H]2CO)cc1 | – | – | inactive [at 88.5 µM]
10 | CN1CCC(NC[C@H]2O[C@H](Cc3cc(-c4ccccc4)on3)CC[C@@H]2O)CC1 | – | inactive: -7.03% [at 88.5 µM] | –
11 | CCN1C(=O)C2CC3(CCN(C(=O)c4cccn4C)CC3)CN2C1=O (stereo not drawn) | inconclusive [inhibitor, single point] | – | –
12 | CC(C)N1C(=O)C(CC(=O)NCCCN2CCCc3ccccc32)=C2CCCCC21 (stereo not drawn) | inconclusive [inhibitor, partial curve, poor fit] | – | –
13 | CC(C)NC(=O)N1CCC(O)(c2csc(CN3CC[C@@H](O)C3)n2)CC1 | inconclusive [inhibitor, partial curve, poor fit] | – | –
14 | CC(C)c1nccn1CCCNC(=O)c1ccc(NC2CCC(O)CC2)nc1 (stereo not drawn) | inconclusive [inhibitor, full curve, poor fit] | – | –
15 | COc1ccc(N2CCN(C(=O)Cn3ccn4nc(-c5ccccc5)c(CO)c4c3=O)CC2)cc1 | inconclusive [inhibitor, full curve] | – | –
16 | COc1ccc(-c2cc(N3CCCC(NC(=O)c4ccc(OC)c(F)c4)C3)n[nH]2)cc1 (stereo not drawn) | inconclusive [inhibitor, partial curve, poor fit] | – | –
17 | Cn1nccc1C(=O)N1C[C@@H](COc2ccccc2)[C@H](C(N)=O)C1 | inconclusive [inhibitor, single point] | – | –
18 | COc1ccc(-c2noc([C@@H]3C[C@@H](O)CN3Cc3cccnc3)n2)cc1 | inconclusive [inhibitor, single point] | – | –
19 | O=C1N(CCc2ccccc2)c2ccccc2C12CCN(Cc1ccncc1)C2 (stereo not drawn) | inconclusive [inhibitor, full curve, poor fit] | – | –

Row | SMILES | Potency | activity change, negative = inhibition | outcome
20 | CCOC(=O)N1CCC(=O)N(CCOC)C[C@H]2CN(C)c3ccccc3[C@@H]21 | – | – | inactive [at 27.3 µM]
21 | O=C(CCC(F)(F)F)N1CCC(CCC(=O)N2CCC(Cc3ccccc3)CC2)CC1 | inconclusive [inhibitor, partial curve] | – | –
22 | CC(C#N)C(C)O[C@@H]1O[C@H](CO)[C@@H](O)[C@H](O)[C@H]1O (stereo partly drawn) | – | – | inactive
23 | O=C(C1CCCN([S+](=O)([O-])c2cccs2)C1)N1CCCC(c2nc3ccncc3[nH]2)C1 (stereo not drawn) | inconclusive [inhibitor, single point] | – | –
24 | CC(=O)N1C[C@@H](NC(=O)Nc2ccc(F)cc2F)C[C@H]1C(=O)N[C@H](Cc1c[nH]c2ccccc12)C(N)=O | inconclusive [inhibitor, full curve, poor fit] | – | –
25 | O=C(O)c1cc(O[C@@H]2O[C@H](CO[C@@H]3OC[C@@H](O)[C@H](O)[C@H]3O)[C@@H](O)[C@H](O)[C@H]2O)c2ccccc2c1O | inconclusive [inhibitor, single point] | – | –
26 | Cc1ccc(-n2cccc2CC(=O)NCC(C)C)cc1 | inconclusive [inhibitor, partial curve, poor fit] | – | –
27 | O=C(c1ccccc1F)N1CCC(C(=O)N2CCC(c3ccccc3)CC2)CC1 | inconclusive [inhibitor, single point] | – | –
28 | CC(C)NC(=O)C[C@@H]1C[C@H]2O[C@H](CNC(=O)NC3CCC3)[C@@H](O)[C@H]2O1 | inconclusive [inhibitor, single point] | – | –
29 | O=C(Cc1c[nH]c2ncc(-c3cccnc3)cc12)Nc1ccc(C(F)(F)F)cc1 | inconclusive [inhibitor, full curve, poor fit] | – | –
30 | COCCC(=O)N1CCCCCC1CN1CCOCC1 (stereo not drawn) | inconclusive [inhibitor, single point] | – | –
31 | C[S+](=O)([O-])N1C2CCC1CN(c1ccc(C(F)(F)F)cc1)C2 | – | – | inactive
32 | CCc1cc(N2CCC3(CC2)CC(c2ccccc2)C(=O)N3)nc(N(C)C)n1 (stereo not drawn) | inconclusive [inhibitor, partial curve, poor fit] | – | –
33 | C[C@@H]1C[C@H]2[C@@H]3CCC4=CC(=O)C=C[C@]4(C)[C@@]3(F)[C@@H](O)C[C@]2(C)[C@@]1(O)C(=O)CO | inconclusive [inhibitor, single point] | – | –
34 | COc1ccc(C(=O)N[C@@H]2CN(C(=O)Nc3ccc(OC(F)(F)F)cc3)CCC[C@H]2O)cc1 | inconclusive [inhibitor, single point] | – | –
35 | O=C1NCCOCCN(C(=O)COc2ccccc2)[C@H]2CCC[C@@H]12 | inconclusive [inhibitor, single point] | – | –
36 | O=C1CCC[C@@H]2C3CC(CN(C4CCN(C(=O)C5(c6ccccc6)CC5)CC4)C3)CN12 (stereo partly drawn) | inconclusive [inhibitor, partial curve, poor fit] | – | –
37 | Cc1ccc(-n2nc(C)c([C@H]3C=C[C@@H](OC(=O)Nc4cccc(F)c4)C3)c2C)cc1Cl | inconclusive [inhibitor, partial curve, poor fit] | – | –
38 | Cn1ccc(NC(=O)[C@@H]2C[C@@H](c3ccc(F)cc3)N(Cc3ccccc3)C2)n1 | – | inactive: 2.82% [at 88.5 µM] | –
